Test results taken from PubChem BioAssay AID485344 (National Center for Advancing Translational Sciences (NCATS), 2010).
Among all 340,000 compounds or so, about 6,900 (2%) were called active. Rule as the data show it: active = inhibition above about 30%; inactive = below that, where a call was filed. This is a selection; strong and weak results do not stand in their true shares. Where no call is shown, the source filed none.

Each compound was assayed against D(2) dopamine receptor (Homo sapiens) (UniProt P14416) (assay: HTS Assay for Allosteric Antagonists of the Human D2 Dopamine Receptor: Primary Screen for Antagonists). Details: HEK293 TREx D2 cells, calcium flux, dopamine EC80; at 10 µM; stronger effect = higher value.
Sequence of UniProt P14416 (P14416 whole entry, looked up): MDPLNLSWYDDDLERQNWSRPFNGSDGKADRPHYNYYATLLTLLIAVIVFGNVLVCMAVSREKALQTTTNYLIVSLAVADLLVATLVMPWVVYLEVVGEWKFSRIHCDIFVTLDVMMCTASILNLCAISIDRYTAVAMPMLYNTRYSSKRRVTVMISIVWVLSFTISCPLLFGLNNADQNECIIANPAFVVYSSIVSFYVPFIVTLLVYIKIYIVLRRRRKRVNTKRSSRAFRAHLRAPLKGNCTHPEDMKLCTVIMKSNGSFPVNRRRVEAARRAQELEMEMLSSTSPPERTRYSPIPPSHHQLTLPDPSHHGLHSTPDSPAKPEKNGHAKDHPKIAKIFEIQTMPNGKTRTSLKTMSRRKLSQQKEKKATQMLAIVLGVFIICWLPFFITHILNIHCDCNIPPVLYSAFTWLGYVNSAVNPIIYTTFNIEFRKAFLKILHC
Method in brief: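 HEK293 T-REx D2 cells, tet-induced, calcium dye no-wash. Cpd pintool add, 180 s kinetic, then EC80 DA, 180 s kinetic. Ca flux read.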
Also: 0% is about no effect.

Row | SMILES | inhibition
1 | Cc1cc(C)c2oc(C(=O)Nc3ccc(S(=O)(=O)Nc4nccc(C)n4)cc3)cc(=O)c2c1 | -12.1%
2 | COc1ccccc1-c1cc(C(=O)NC(C)c2ccccc2)no1 (centres undefined) | active: 60.8%
3 | Cc1nnc2c3ccccc3nc(Nc3cccc(O)c3)n12 | 0.856%
4 | CCCCOC(=O)c1ccc(Nc2nnc(-n3nc(C)cc3C)c3ccccc23)cc1 | 5.4%
5 | CCOC(=O)c1ccc(NC(=O)c2nc(SCc3ccccc3F)ncc2Cl)cc1 | -2.53%
6 | COc1ccc(-c2noc(CSc3nc(N)cc(=O)[nH]3)n2)cc1OC | 1.83%
7 | O=C(NC1CC(=O)N(c2ccc(Cl)cc2)C1)c1ccc(S(=O)(=O)N2CCOCC2)cc1 (centres undefined) | -11.6%
8 | COc1ccc(-c2noc(CN(C(=O)c3cc(OC)c(OC)cc3OC)C(C)C)n2)cc1 | 14.3%
9 | COc1cc(C2C(C(=O)Nc3ccccc3)=C(C)Nc3nnnn32)cc(OC)c1OC (centres undefined) | 6.6%
10 | CCOc1ccc2nc(N3CCCC(C(=O)NCc4ccccc4OC)C3)sc2c1 (centres undefined) | 17.9%
11 | CCCn1c2ccccc2c2cnn(CC(=O)NCCc3ccc(C)cc3)c(=O)c21 | 2.69%
12 | Cc1ccc(Cl)cc1NC(=O)C1CCN(c2nc3ccccc3n3cccc23)CC1 | 0.723%
13 | CCc1ccc(C2c3c(-c4ccccc4)n[nH]c3C(=O)N2c2ccc(C(=O)O)cc2)cc1 (centres undefined) | 16.5%
14 | COc1cccc(-n2cc(C(=O)NCc3ccc(C)cc3)c3ccccc3c2=O)c1 | 7.94%
15 | COc1ccc(C(=O)Nc2nc(C)c(C(C)=O)s2)cc1S(=O)(=O)N1CCOCC1 | active: 30.1%
16 | O=C(CSc1nccn1Cc1ccc(Cl)cc1)Nc1ccc2c(c1)OCO2 | -0.0598%
17 | COc1ccc(NC(=O)C2CCCN(S(=O)(=O)c3c(C)[nH]c(=O)[nH]c3=O)C2)cc1Cl (centres undefined) | 12.5%
18 | Cc1nn(-c2ccc(N3CCOCC3)nn2)c(C)c1CCC(=O)Nc1ccc(F)cc1F | -20%
19 | O=C(Nc1ccc(Cl)c(C(F)(F)F)c1)C(Cc1ccccc1)NS(=O)(=O)c1cccc2nsnc12 (centres undefined) | 2.02%
20 | Cc1cc(C)cc(OCCSc2nc(-c3cccs3)nc3cc(=O)[nH]n23)c1 | -3.13%
21 | CCC(Sc1nc2ncccc2o1)C(=O)Nc1cccc(C)c1 (centres undefined) | -19.4%
22 | COc1ccc(-c2cc(C)no2)cc1S(=O)(=O)N1CCOc2ccc(Cl)cc21 | 10.9%
23 | COC(=O)c1ccc2c(=O)n(CCCCCC(=O)NCc3ccc(OC)cc3)c(=O)[nH]c2c1 | 13.5%
24 | COc1ccc(Nc2cc(C(=O)NCCCN(C)C3CCCCC3)c3ccccc3n2)c(OC)c1 | -6.32%

Row | SMILES | inhibition
25 | COc1ccc(CCNc2nc(SCc3cccc(F)c3)nc3ccccc23)cc1OC | 28.3%
26 | CCC(C)NC(=O)CN1C(=O)c2cccnc2Oc2ccc(C)cc21 (centres undefined) | -6.88%
27 | CC(C)c1ccc(NC(=O)CN2C(=O)COc3ccc(S(=O)(=O)N4CCOCC4)cc32)cc1 | 21.9%
28 | CCn1cc(C(=O)NCCc2ccccc2)c(=O)c2cc(S(=O)(=O)N3CCc4ccccc4C3)ccc21 | -11.9%
29 | CCCn1c2ccccc2c2cnn(CC(=O)NCCCN(Cc3ccccc3)C(C)C)c(=O)c21 | 14.3%
30 | O=S(=O)(NCCc1csc2nc(-c3ccc(Cl)cc3)nn12)c1ccc2c(c1)OCCO2 | 5.64%
31 | COc1cc(Cl)c(C)cc1NC(=O)c1nn(C)c2c1CSc1ccccc1-2 | -5.82%
32 | COc1ccc(CNC(=O)c2cc(-c3ccc(Cl)cc3)n[nH]2)cc1 | 6%
33 | O=C(CCCCn1c(=O)c2ccccc2n(Cc2cccc(Cl)c2)c1=O)NCc1ccc2c(c1)OCO2 | -0.504%
34 | CCCN(CCC)CCNC(=O)c1nn(C)c2c1CS(=O)(=O)c1ccccc1-2 | -13.9%
35 | COc1ccc(C2CC(=O)N(CC(=O)Nc3ccc(C(C)=O)cc3)c3ccccc3S2)cc1OC (centres undefined) | 5.87%
36 | CCOC(=O)c1c(C)oc2nc(C)nc(N3CCN(c4cccc(C(F)(F)F)c4)CC3)c12 | 4.5%
37 | CCOC(=O)c1c(NC(=O)/C=C/c2ccc(Cl)cc2)sc2c1CCC(C)C2 (centres undefined) | 4.34%
38 | COc1ccc(CCC(=O)NC2CC(=O)N(c3ccccc3)C2)cc1 (centres undefined) | 1.11%
39 | Cc1ccc2[nH]c(CSc3nnc(NC(=O)COc4ccc(F)cc4)s3)cc(=O)c2c1 | 9.29%
40 | Cc1ccccc1C(=O)n1nc(-c2ccco2)nc1NCc1cccs1 | -9.32%
41 | CC1=Nc2cc(C(=O)N3CCCCC3)ccc2Sc2ccc(C)cc21 | 24.4%
42 | Cc1c(C(=O)NCc2ccc(OC(C)C)cc2)sc2ncnc(N(C)C3CCCCC3)c12 | 4.75%
43 | CCCC(=O)Nc1nnc(SCc2cc(=O)n3cccc(C)c3n2)s1 | -9.91%
44 | COc1ccc(CNC(=O)Cn2ncc3c(=O)oc4ccc(C)cc4c32)c(OC)c1 | -14.7%
45 | Cc1cc(=O)n2[nH]c(NC(=O)c3cccc(Cl)c3)nc2n1 | -11.7%
46 | Nn1c(SCC(=O)Nc2ccc3c(c2)OCO3)nnc1C1CCCCC1 | active: 31%
47 | COc1ccc(N(C)S(=O)(=O)c2ccc3c(c2)n(C)c(=O)c(=O)n3C)cc1 | 7.95%
48 | CC(C)CN(CC(C)C)S(=O)(=O)c1ccc(C(=O)Nc2sc3c(c2C(N)=O)CCN(C(C)C)C3)cc1 | 5.46%

Row | SMILES | inhibition
49 | CCOCCc1nn2c(=O)cc(COC(=O)c3ccccc3NC(=O)CC(C)C)nc2s1 | 16.1%
50 | CCOc1ccc(-c2noc(CSc3nnc(Cc4ccccc4)n3-c3ccc(F)cc3)n2)cc1 | -11%
51 | COc1cccc(C(=O)Nc2c3c(nn2-c2ccc(C)cc2C)CS(=O)(=O)C3)c1OC | 13.1%
52 | CCN1CCOC(=O)C1CC(=O)Nc1cc(Cl)ccc1C (centres undefined) | 7.53%
53 | CCN1CCN(CCCNC(=O)c2cnn(-c3ccc(OC)cc3)c2C2CCN(C(=O)OC(C)(C)C)CC2)CC1 | -2.64%
54 | C/C(=N\NC(=S)Nc1cc(S(=O)(=O)N2CCOCC2)ccc1Cl)c1ccc(N2CCOCC2)cc1 | active: 34.7%
55 | CCOC(=O)c1cccc(NC(=O)CC2C(=O)N(c3ccc(F)cc3)C(=O)N2Cc2cccc(OC)c2)c1 (centres undefined) | 14%
56 | CCOC(=O)c1ccc(Nc2nc3ccccc3n3c(C)nnc23)cc1 | -12.5%
57 | CC1CC(=O)N(CC(=O)Nc2ccc(OC(F)(F)F)cc2)c2ccccc2S1 (centres undefined) | -6.03%
58 | CCCN1CCN(C(=O)Cn2ncc3c4ccccc4n(Cc4cccc(Cl)c4)c3c2=O)CC1 | 5.13%
59 | O=C(c1cccs1)N1CCN(Cc2cn[nH]c2-c2ccc(F)cc2F)CC1 | active: 52.9%
60 | O=C(Nc1c(C(=O)N2CCN(c3ccccc3)CC2)oc2ccccc12)c1ccccc1F | 8.77%
61 | Cc1cccc(N(C)C(=O)c2cc3c(=O)oc4ccc(C)cc4c3s2)c1 | -3.15%
62 | Cc1ccc(NC(=O)C2CCCN(c3ncnc4c3nc3n4CCCCC3)C2)cc1Cl (centres undefined) | active: 33.1%
63 | CCOc1ccc(-n2nc3ccc(NC(=O)c4ccc(C)cc4C)cc3n2)cc1 | 7.98%
64 | Cc1ccc(CCNC(=O)c2cc3cc(S(=O)(=O)N4CCCCC4)ccc3n2C)cc1 | 14.2%
65 | COc1ccc(OC)c(NC(=O)Cn2c(CCC(=O)O)ccc2-c2ccccc2)c1 | 9.49%
66 | CCn1nnnc1-c1ccc(OC)c(S(=O)(=O)NCc2ccccc2)c1 | active: 33.1%
67 | Cc1cccc(C)c1NC(=O)Cn1c(=O)cc(C)c2c(C)nn(-c3cccc(Cl)c3C)c21 | 2.35%
68 | COc1ccc(Cl)cc1NC(=O)c1sc2nc3c(cc2c1N)CN(C)CC3 | 5.85%
69 | O=C(CCC1N=C2c3ccccc3N=C(SCc3ccc(Cl)cc3)N2C1=O)NC1CCCCC1 (centres undefined) | 4.87%
70 | CCOc1ccccc1NC(=O)Cn1c(=O)n(Cc2ccccc2)c(=O)c2c3c(sc21)CN(C(C)=O)CC3 | 9.6%
71 | Cc1ccc(-n2ncc3c(N4CCCCC4)ncnc32)cc1 | 6.81%
72 | CCOCc1c(C(=O)N2CCN(Cc3ccc(Br)s3)CC2)oc2ccccc12 | active: 32.1%

Row | SMILES | inhibition
73 | O=C(CN1CCN(C2CCCCC2)C(=O)C1=O)Nc1ccc(Cl)cc1 | 1.25%
74 | COc1ccc(NC(=O)CC(C)S(=O)(=O)c2ccc3c(c2)NC(=O)CO3)cc1OC (centres undefined) | -15.5%
75 | O=C(Nc1cccc(Cl)c1)c1cc(S(=O)(=O)N2CCC3(CC2)OCCO3)ccc1F | 22.1%
76 | CCN(CCCNC(=O)Cn1ncc2c3ccccc3n(C)c2c1=O)c1cccc(C)c1 | -5.89%
77 | COc1cc(OC)c(NC(=O)Cn2cnc3c(nc4n3CCCCC4)c2=O)cc1Cl | 11.7%
78 | Cc1cc(OCC(=O)Nc2nc3c(s2)CCCC3)cc(C)c1Cl | 1.63%
79 | O=C(Nc1ccnn1C1CCN(CCCc2ccccc2)CC1)c1ccccc1Cl | active: 87.7%
80 | CCOC(=O)c1ccccc1NC(=O)COc1cc(=O)n(CC)c2ccccc12 | -3.24%
81 | CCOC(=O)c1cc2c(=O)n3ccccc3nc2n(Cc2ccco2)c1=NC(=O)c1ccc(F)cc1 | -1.09%
82 | O=C(CCCn1c(=O)[nH]c2ccccc2c1=O)N1CCN(c2ccccc2)CC1 | 7.15%
83 | O=C(CN1C(=O)COc2ccc(S(=O)(=O)N3CCOCC3)cc21)N1CCN(c2ccc(Cl)cc2)CC1 | 13.1%
84 | O=S(=O)(NCCc1cn2ccsc2n1)c1ccc(Cl)cc1 | 1.27%
85 | CC1=C(c2ccc(C)cc2)S(=O)(=O)N(Cc2ccc(C(=O)NCc3ccccc3F)cc2)C1=O | -13.1%
86 | Cc1[nH]nc2c1C(c1cccs1)C1=C(CC(C)(C)CC1=O)N2 (centres undefined) | active: 30.2%
87 | Cc1ccc(C(=O)c2sc(Nc3ccc(F)cc3)nc2N)c(C)c1 | 11.6%
88 | O=C1CCCc2[nH]c(=O)c(-c3nc(-c4cccc([N+](=O)[O-])c4)cs3)cc21 | 4.89%
89 | CC(=O)c1ccc(NC(=O)Cn2c(=O)oc3cc(S(=O)(=O)N4CCCCC4)ccc32)cc1 | 7.12%
90 | COc1ccc(-c2nc(CNC(=O)NC3CCCCC3)c(C)o2)c(OC)c1 | 4.86%
91 | Cc1ccc2c(c1)C(C)(c1ccccc1)CC(C)(C)N2C(=O)c1ccc(F)cc1 (centres undefined) | -3.36%
92 | O=C(NC(=S)N1CCN(Cc2ccccc2)CC1)c1ccccc1 | active: 31.2%
93 | Cc1ccc(NC(=O)CN2C(=O)C(c3ccc(F)cc3)=NC2(C)C)c(C)c1 | 10.9%
94 | Cc1cccc(C(=O)Nc2sc3c(c2C(=O)Nc2ccccc2)CCC3)c1 | 1.71%
